This is one part of the list. The full chains were built here from the parent and the listed change. Values near 0.05 are background.
B1: TEV protease; numbered along this chain (parent)
chain: MGESLFKGPRDYNPISSSICHLTNESDGHTTSLYGIGFGPFIITNKHLFRRNNGTLVVQSLHGVFKVKDTTTLQQHLVDGRDMIIIRMPKDFPPFPQKLKFREPQREERICLVTTNFQTKSMSSMVSDTSCTFPSGDGIFWKHWIQTKDGQCGSPLVSTRDGFIVGIHSASNFTNTNNYFTSVPKNFMELLTNQEAQQWVSGWRLNADSVLWGGHKVFMVKPEEPFQPVKEATQL

Variants of: B1
Assay: raw area under fraction-flipped curve 0-4 h after induction (AUC4h, not background-subtracted), DNA-recorder readout of cleavage of the substrate (dimensionless); higher = more cleavage of the substrate by the protease variant
Settings: temperature: 34 °C; time window: 0-4 h after rhamnose induction
Experimental: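 In vivo DNA recorder in E. coli TOP10(DE3) ΔrhaA at 34 °C. Each TEVp single-site mutant (parent TEVp 0) is paired with a single-site variant of the 7-mer TEVs (canonical ENLYFQ|S). The substrate sits between flexible linkers in a Bxb1-sfGFP-TEVs-SsrA fusion, so cleavage stabilises Bxb1 and speeds flipping of a recombination array, read by NGS. The value is the raw area under the fraction-flipped curve over 0-4 h after rhamnose induction (AUC4h), with ≥20 reads per time point. It is not background-subtracted; inactive controls average about 0.047.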
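Also: Bxb1 expression induced with 0.2% (w/v) L-rhamnose at OD600 near 0.5, cultures sampled hourly, flipped fraction per protease–substrate barcode pair counted by paired-end Illumina sequencing.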

Variant	area with substrate ENLYCQS	area with substrate ENLYDQS	area with substrate ENLYEQS	area with substrate ENLYGQS	area with substrate ENLYHQS	area with substrate ENLYKQS	area with substrate ENLYNQS	area with substrate ENLYRQS	area with substrate ENLYSQS	area with substrate ENLYVQS	area with substrate ENLYWQS	area with substrate ENLYMQS	area with substrate ENLYIQS	area with substrate ENLYPQS	area with substrate ENLYQQS	area with substrate ENLYTQS	area with substrate ENLYYQS	area with substrate ENLYLQS
K142D	0.0794	0.0652	0.0608	0.0566	0.0533	0.0647	0.0697	0.0672	0.0701	0.0723	0.0025	–	–	–	–	–	–	–
R51K	0.0777	–	–	–	–	–	–	–	–	0.122	0.0805	0.0883	–	–	–	–	–	–
Y179K	0.0803	–	0.0573	–	–	–	–	0.0581	0.0777	–	–	–	0.0647	–	–	–	–	–
E25L	0.0742	0.0518	0.072	0.0697	0.0741	–	0.0745	0.055	0.0508	0.122	0.0748	0.0907	0.122	0.0637	0.0551	0.115	0.0672	–
S18W	0.0752	–	0.0662	0.0549	0.0797	0.0632	–	0.0643	–	0.0871	0.0776	–	0.0839	0.0827	0.0531	–	–	–
P14G	0.0745	0.0536	0.0585	0.0524	0.0799	0.068	0.0793	0.082	0.059	0.142	0.0743	–	0.122	0.0701	0.0636	0.0997	–	0.113
K46I	0.0683	0.0578	0.0594	0.0576	0.0651	0.0619	0.0656	0.0658	0.0733	0.0543	0.0629	0.0633	0.0738	0.0647	0.0661	–	–	–
T233R	0.103	–	0.0641	0.0603	0.0643	–	0.0623	0.0525	0.0834	0.135	0.0988	–	0.11	0.091	0.0617	0.0893	0.077	0.0958
D69T	0.0744	0.0593	0.0557	0.0491	0.0679	0.0623	0.0688	–	0.0783	0.117	0.0705	0.0855	–	0.0741	–	0.0591	0.074	0.0652
G39H	0.0217	–	0.0518	0.042	0.0471	0.0363	0.0334	0.0521	0.0502	0.0469	0.0466	0.0374	0.0266	0.0388	0.0519	–	0.0483	–
G202H	0.0737	–	0.0593	0.0685	0.0559	–	0.0618	0.06	0.0687	0.0657	0.0697	0.062	0.0752	–	0.0557	–	0.052	0.0601
H21L	0.0829	0.0407	0.0617	0.0613	0.0793	0.0698	0.051	–	–	–	–	0.0957	0.0882	0.0616	–	–	–	–
D161R	0.0641	0.0538	0.0599	0.0553	0.0531	0.0172	0.0563	0.0485	0.063	0.0668	0.0665	0.0532	0.0844	0.0515	0.0582	0.0578	0.0374	0.0511
K142P	0.0656	0.0488	0.0598	0.0559	0.0569	0.0725	–	0.06	0.075	–	–	0.0676	0.0732	0.0817	0.0585	0.0653	–	–
E231Q	0.0821	0.0677	0.109	0.0651	0.0693	0.059	–	–	–	–	–	–	–	0.0682	0.0717	–	–	–
V200M	–	0.0625	–	0.0705	0.0713	0	0.0608	0.0679	0.0685	0.085	0.0718	0.0647	0.111	0.0764	0.0577	–	0.0604	–
P228H	–	0.0659	0.0627	–	0.0706	–	–	0.0662	0.0804	0.0902	0.0748	0.0773	–	0.0729	–	–	0.0638	–
K148W	–	0.0651	0.0588	0.0688	0.0837	0.0544	0.0652	0.0637	0.0788	0.11	0.0734	0.0488	0.1	0.0418	0.0731	0.0706	0.06	–
Q151G	–	0.0666	0.0543	0.0823	0.0618	0.0493	0.0638	0.0629	0.0851	0.116	0.0748	0.0665	0.0964	0.0511	0.0587	0.0811	–	0.078
T44E	–	0.0479	0.0485	0.0398	0.0509	–	0.0246	–	–	0.0436	0.0323	0.0221	0.0416	0.0436	0.0488	0.0372	0.0375	–
T147P	–	0.0617	0.0717	0.0674	0.0595	0.0415	0.0587	0.0863	0.0582	0.0356	0.066	–	0.0698	0.0743	0.0611	–	0.0708	–
K230P	–	0.0528	0.0711	–	0.0594	0.0597	0.0767	0.0566	0.0417	–	–	0.0657	0.105	0.0742	–	0.0787	0.0422	0.0761
L61E	–	0.068	0.073	0.0889	0.0737	0.0225	0.0675	0.048	0.0748	–	0.0882	–	0.123	0.0482	–	–	–	0.0889
V183L	–	0.056	0.0658	0.0639	–	0.0596	0.0674	–	–	–	–	–	0.116	0.0501	–	0.0815	–	–
T176A	–	0.0538	–	–	0.0606	0.0517	0.059	0.0692	–	0.0571	0.0561	0.0597	–	0.0713	0.07	–	–	–
E231A	–	0.0637	0.0658	–	0.0863	0.0769	0.076	0.0668	0.0721	–	0.0833	0.0819	0.113	–	–	–	0.0958	0.0748
P225A	–	0.0779	0.0685	0.0548	0.0698	0.0515	0.0719	–	0.0855	0.144	0.0771	0.092	0.137	0.066	0.0648	0.14	–	0.101
